Test results: PubChem BioAssay AID504339 (National Center for Advancing Translational Sciences (NCATS), 2011)
Screen size: about 390,000 compounds; about 17,000 (4.4%) were called active. This list was built around the results that the source calls inconclusive (neither active nor inactive); the mix of calls is not that of the screen. Calls follow the shape of the dose curve; as a rule, active = well fitted inhibition curve with a large enough effect; inconclusive = small, poorly fitted or top-dose-only effect; inactive = no such curve, though single readings can be large or run the other way. Potencies of inconclusive entries are doubtful fits and often do not repeat.

What follows are molecules tested against Lysine-specific demethylase 4A (Homo sapiens) (UniProt O75164) (assay: qHTS Assay for Inhibitors of JMJD2A-Tudor Domain). Settings: AlphaScreen JMJD2A-Tudor / H3K4me3 peptide binding; series mostly up to 114 µM.
UniProt O75164, sequence (O75164 whole entry, looked up, the tested form may be a part): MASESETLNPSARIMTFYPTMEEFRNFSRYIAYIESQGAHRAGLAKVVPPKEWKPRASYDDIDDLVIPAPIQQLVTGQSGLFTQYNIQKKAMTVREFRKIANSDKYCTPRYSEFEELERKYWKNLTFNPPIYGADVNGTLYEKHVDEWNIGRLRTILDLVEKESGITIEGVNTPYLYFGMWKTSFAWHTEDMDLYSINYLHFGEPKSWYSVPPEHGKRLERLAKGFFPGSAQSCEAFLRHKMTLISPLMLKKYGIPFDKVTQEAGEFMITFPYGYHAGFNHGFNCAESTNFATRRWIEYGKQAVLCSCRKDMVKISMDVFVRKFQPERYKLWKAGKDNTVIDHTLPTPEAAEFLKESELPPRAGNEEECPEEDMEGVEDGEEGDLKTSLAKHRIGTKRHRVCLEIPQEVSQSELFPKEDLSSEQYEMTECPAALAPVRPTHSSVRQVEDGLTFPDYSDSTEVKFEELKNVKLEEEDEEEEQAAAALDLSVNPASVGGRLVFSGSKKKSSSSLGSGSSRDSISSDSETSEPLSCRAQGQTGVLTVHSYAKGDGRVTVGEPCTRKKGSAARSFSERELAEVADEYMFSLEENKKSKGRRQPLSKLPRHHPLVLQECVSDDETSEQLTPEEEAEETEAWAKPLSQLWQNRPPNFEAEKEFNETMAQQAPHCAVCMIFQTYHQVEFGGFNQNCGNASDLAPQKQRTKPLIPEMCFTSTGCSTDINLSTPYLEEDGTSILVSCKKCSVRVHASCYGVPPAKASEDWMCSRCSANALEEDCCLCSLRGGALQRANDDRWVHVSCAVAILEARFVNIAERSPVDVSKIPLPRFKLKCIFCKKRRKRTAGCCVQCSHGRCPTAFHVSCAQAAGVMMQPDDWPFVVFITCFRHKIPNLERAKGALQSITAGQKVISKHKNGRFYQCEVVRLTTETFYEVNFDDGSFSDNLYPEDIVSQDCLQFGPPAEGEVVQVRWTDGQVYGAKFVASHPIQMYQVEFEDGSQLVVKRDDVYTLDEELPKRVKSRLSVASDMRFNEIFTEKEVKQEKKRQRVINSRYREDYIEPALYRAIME
Also: nearly all actives have a fitted effect of over 50% in size.
Potency is read from the fitted curve at half-maximal effect; tags tell the direction and shape of the fitted curve.

| Compound | Potency |
| --- | --- |
| Cn1cc(-c2cc3n(n2)CCC(=O)N3CCCC(=O)Nc2ccccc2F)c2ccccc21 | inconclusive: 79.4 µM [inhibitor, single point] |
| COc1ccc(-c2nc(S(=O)(=O)c3ccc(C)cc3)c(NCc3ccccc3)o2)cc1 | inconclusive: 56.2 µM [inhibitor, partial curve] |
| O=S(=O)(c1cccc(-c2n[nH]c(=S)n2-c2ccccc2Cl)c1)N1CCOCC1 | active: 22.4 µM |
| CN1CCN(C(=O)c2ccc3c(=O)n(-c4ccc(F)cc4)c(=S)[nH]c3c2)CC1 | active: 10 µM |
| O=c1[nH]n(CCO)c(=O)c2cccnc12 | active: 56.2 µM |
| Cc1ccc(C(=O)NN2C(=O)/C(=C/c3cccn3C)SC2=S)cc1 | inconclusive: 20 µM [inhibitor, full curve] |
| CNC(=S)N(CCc1c(C)[nH]c2ccc(OC)cc12)Cc1ccco1 | inconclusive: 63.1 µM [inhibitor, partial curve, poor fit] |
| CCCCCCSc1ccc(-c2nc3ccccn3c2NCCCC)cc1 | inconclusive: 31.6 µM [inhibitor, partial curve, poor fit] |
| Cc1ccc(-c2cn(C[C@H]3CC[C@@H]([C@@H]4CC[C@H](Cn5cc(-c6ccc(C)cc6)nn5)O4)O3)nn2)cc1 | inactive |
| COc1ccc(CCN2CN(S(=O)(=O)c3ccccc3)c3nc4ccccc4nc32)cc1 | inactive |
| CCOc1ccc(/C=N/n2c(C3CCCCC3)n[nH]c2=S)cc1 | inconclusive: 44.7 µM [inhibitor, partial curve] |
| CCOC(=O)/C(C#N)=C/c1c(N2CCN(c3ccccc3)CC2)nc2c(C)cccn2c1=O | inconclusive: 14.1 µM [inhibitor, full curve] |
| C/C(CC(C)C)=N\Nc1ccc(S(N)(=O)=O)cc1[N+](=O)[O-] | inconclusive: 50.1 µM [inhibitor, partial curve] |
| CCc1c(CN2CCN(c3cccc(C)c3)C(C)C2)csc1C (stereo not drawn) | inconclusive: 79.4 µM [inhibitor, partial curve] |
| COc1ccc(NCc2cc(=O)[nH]c3ccccc23)cc1 | inconclusive: 63.1 µM [inhibitor, partial curve] |
| COc1ccc(C(=O)COC(=O)C(CCSC)NC(=O)COc2ccccc2)c(OC)c1 (stereo not drawn) | inconclusive: 56.2 µM [inhibitor, partial curve] |
| Cc1nn(C(C)C(=O)NCCN2CCCC2)c(=O)c2c1sc1ccccc12 (stereo not drawn) | inactive |
| O=C(NC(=S)Nc1ccccc1N1CCCCC1)c1ccc(-c2cccc([N+](=O)[O-])c2)o1 | inconclusive: 56.2 µM [inhibitor, partial curve] |
| S=c1[nH]cc(Oc2ccc(Cl)cc2Cl)c(=S)[nH]1 | inconclusive: 50.1 µM [inhibitor, partial curve] |
| COc1c(C)cccc1C(=O)Nc1cc(-c2nn3c(C)nnc3s2)ccc1C | inconclusive: 50.1 µM [inhibitor, partial curve] |
| COCCn1c(-c2ccc(OC)cc2)cnc1N | inconclusive: 56.2 µM [inhibitor, partial curve] |
| COc1ccc(NC(=S)NCCc2ccccc2OC)c(OC)c1 | inconclusive: 89.1 µM [inhibitor, single point] |
| NS(=O)(=O)c1ccc(Nc2nc(-c3ccc(O)cc3)cs2)cc1 | inconclusive: 63.1 µM [inhibitor, partial curve] |

| Compound | Potency |
| --- | --- |
| Cc1c(C(c2cc(O)ccc2O)c2c(C)n(C)n(-c3ccccc3)c2=O)c(=O)n(-c2ccccc2)n1C | inconclusive: 79.4 µM [inhibitor, single point] |
| CCc1ccc2occ(CC(=O)N(Cc3ccc(N(C)C)cc3)C3CCS(=O)(=O)C3)c2c1 (stereo not drawn) | active: 39.8 µM |
| CN1CCN(C2CCN(c3ccc(Nc4nnc(Cl)c(Nc5ccccc5S(C)(=O)=O)n4)c(OC(CF)CF)c3)CC2)CC1 | inconclusive: 50.1 µM [inhibitor, partial curve] |
| Cc1oc(-c2ccc(Cl)cc2)nc1CN1CCCC(C(=O)NCc2ccco2)C1 (stereo not drawn) | inconclusive: 56.2 µM [inhibitor, partial curve] |
| CCCN(CCO)Cc1ccc(F)c(Br)c1 | active: 14.1 µM |
| O=C(N[C@@H](Cc1ccccc1)C(=O)O)c1cccnc1 | inactive |
| Cc1ccc2c(c1)[C@H]1[C@H](CO2)[C@H](c2ccccc2)[C@]2(C)C(=O)N(Cc3ccco3)CC(=O)N12 | inconclusive: 50.1 µM [inhibitor, partial curve] |
| COC(=O)c1ccc(C2/C(=C(\O)c3ccc4c(c3)OCCO4)C(=O)C(=O)N2CCCN2CCOCC2)cc1 (stereo not drawn) | inactive |
| O=C(COC(=O)CNC(=O)c1ccc(Cl)cc1Cl)NC1CCCCCCC1 | inactive |
| CCOC(=O)c1c(Nc2cccc(C)c2)nnc(-c2ccccc2)c1-c1ccccc1 | inconclusive: 15.8 µM [inhibitor, full curve, poor fit] |
| CC1(C)OC(=O)C(=NNc2ccccc2[N+](=O)[O-])C(=O)O1 | inactive |
| CCCCn1c(NC(=O)CC)c(C#N)c2nc3ccccc3nc21 | inconclusive: 100 µM [inhibitor, single point] |
| CCN(Cc1ccccc1)C(=O)C1CCC(CNc2c(N3CCOCC3)c(=O)c2=O)CC1 (stereo not drawn) | inactive |
| O=C(CCN1C(=O)/C(=C/c2cccc(Br)c2)SC1=S)Nc1cccnc1 | inconclusive: 89.1 µM [inhibitor, single point] |
| O=C(CSc1nc2c(c(=O)n1-c1ccccc1)SCC2)N1CCN(c2ccccc2)CC1 | inconclusive: 70.8 µM [inhibitor, single point] |
| CCOc1cccc(/C=N/NC(=O)c2cc(-c3cccn3C)n[nH]2)c1O | inconclusive: 56.2 µM [inhibitor, partial curve] |
| O=C(C1CCCCC1)N(Cc1cccnc1)c1nc2ccc(F)cc2s1 | inactive |
| COc1ccc(CCNS(=O)(=O)CCNC(=O)c2ccc3c(c2)OCO3)cc1 | inactive |
| N#Cc1ccc(C(=O)N(Cc2ccccc2)c2ccccc2)cc1 | inactive |
| COc1ccc(N2CC(C(=O)O)CC2=O)cc1 (stereo not drawn) | inconclusive: 25.1 µM [inhibitor, partial curve] |
| CCc1ccc(CCC(=O)Nc2ccc(OC)cc2)o1 | inconclusive: 79.4 µM [inhibitor, partial curve] |
| Cc1nc(C(=O)NNC(=O)c2ccccc2Cl)c(C(F)(F)F)o1 | inconclusive: 3.55 µM [inhibitor, single point] |
| COc1ccc(C(=O)CC(=O)C(=O)Nc2cc(C)ccc2C)cc1 | inconclusive: 50.1 µM [inhibitor, partial curve] |

| Compound | Potency |
| --- | --- |
| CCCCOc1ccc(N(CC(=O)NCc2ccccc2)C(=O)c2csnn2)cc1 | inactive |
| COc1ccc(CCNc2nc(C)nc3c2nnn3Cc2ccccc2)cc1 | inactive |
| C/C(=N\NC(=O)C1CC1)c1ccc(Cl)c(Cl)c1 | inactive |
| CCOc1cccc2sc(N(CCCN(C)C)C(=O)c3ccc(C(=O)c4ccccc4)cc3)nc12 | inconclusive: 63.1 µM [inhibitor, partial curve] |
| C/C(=C\C(=O)c1ccc(Br)cc1)Nc1cccc(Cl)c1 | inactive |
| Cn1c(=O)[nH]c(=O)c2[nH]c(CO)nc21 | inconclusive: 39.8 µM [inhibitor, single point] |
| CC(=O)[C@H]1[C@@H]2C(=O)N(c3cccc(Cl)c3)C(=O)[C@@H]2[C@H]2c3ccccc3C=CN21 | inconclusive: 79.4 µM [inhibitor, partial curve] |
| COc1cccc(/C=N/NC(=O)CC(=O)NCCc2ccc(OC)c(OC)c2)c1 | inconclusive: 35.5 µM [inhibitor, partial curve] |
| CCn1c(SCC(=O)Nc2nc(-c3ccc(C)cc3)cs2)nnc1-c1ccccc1O | inconclusive: 44.7 µM [inhibitor, partial curve] |
| CN1CCN(C2=Cc3ccccc3Sc3cc(F)c(F)cc32)CC1 | inconclusive: 56.2 µM [inhibitor, partial curve] |
| O=C(N/N=C/c1cc(Br)cc(Br)c1O)c1cccc(N2CCCC2=O)c1 | active: 89.1 µM |
| COc1ccc(CNC(=O)N2CCN(S(=O)(=O)c3ccccc3)CC2)cc1 | inconclusive: 0.794 µM [inhibitor, full curve] |
| COc1cc(/C=N/NC(=O)C(=O)Nc2ccccn2)ccc1O | inconclusive: 20 µM [inhibitor, partial curve] |
| Cc1[nH]c2ccccc2c1/C=C(\C#N)C(=O)NC(C)c1ccccc1 (stereo not drawn) | inconclusive: 79.4 µM [inhibitor, partial curve] |
| COc1ccc(OCC(CO)N2CCN(c3ccccc3)CC2)cc1 (stereo not drawn) | inactive |
| CCOc1ccccc1CN1CCc2nc(Nc3ccccc3)ncc2C1 | inconclusive: 56.2 µM [inhibitor, partial curve] |
| COc1ccc(C(C#N)=C2C=CC(=NO)C(C)=C2Cl)cc1 | active: 8.91 µM |
| COc1ccc(OC)c(CCNC(=O)CN2C(=O)COc3ccc(S(=O)(=O)N4CCCCCC4)cc32)c1 | inconclusive: 44.7 µM [inhibitor, partial curve] |
| CC(=O)c1ccc(-c2cccc(-c3nc4ccccn4c3NC3CCCCC3)c2)cc1 | inconclusive: 31.6 µM [inhibitor, partial curve] |
| CCc1ccccc1NC(=O)CCCSc1nc2ccccc2s1 | inactive |
| CC(Oc1ccc(Cl)cc1Cl)C(=O)NC1CCSC1=O (stereo not drawn) | inactive |
| O=C(COC(=O)c1cc([N+](=O)[O-])ccc1N1CCOCC1)Nc1ccc(Cl)cn1 | inconclusive: 20 µM [inhibitor, full curve, poor fit] |
